Whole data set: some 33,000 sequences, median “E-score (dimensionless, -0.5 to 0.5)” near -0.058, cut for the highest 2% near 0.35. This is one part of the list.
Each sequence was assayed on MvaT (assay: PBM 8-mer E-score (mean of HK and ME arrays) (E-score (dimensionless, -0.5 to 0.5)); higher = stronger relative binding preference; most listed sequences are background and not binding sites).
How it was run: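 Full-length P. aeruginosa MvaT carrying an N-terminal glutathione S-transferase tag was tested by protein binding microarray following a previously described protocol. Two universal double-stranded 60-mer arrays, ME and HK, were used, each with a constant 25-mer primer region and a variable 35-mer region covering all 8-mers. The rank-based E-score is the mean of the two arrays, parsed with a custom script. Its range runs from -0.5 to 0.5 for each 8-mer.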

| Sequence | PBM 8-mer E-score |
| --- | --- |
| GGACAATA | 0.222 |
| CTAGCTTA | 0.0773 |
| ACTATAAT | 0.436 |
| CACTATGA | 0.0673 |
| CCCAACAC | -0.0792 |
| ACGTTGCG | -0.206 |
| CCACAAAA | -0.00309 |
| AGGAAATC | -0.135 |
| AAATCATC | -0.125 |
| GCCATAGC | -0.237 |
| CCTGTAAC | 0.0801 |
| AGACTCTG | 0.0263 |
| AAAAATGT | 0.0973 |
| GTAGAGAA | -0.0127 |
| AGCTCCCA | -0.313 |
| ATTACTGC | 0.148 |
| CACGGTCC | -0.229 |
| CCACTTCA | 0.0378 |
| ACCGTGCA | 0.0516 |
| AAAAACTC | 0.108 |
| CCAGAATA | 0.212 |
| AACATCTA | 0.265 |
| CCAACTAA | 0.117 |
| GTGGTAAA | 0.0535 |
| GATTCTGC | -0.159 |

| Sequence | PBM 8-mer E-score |
| --- | --- |
| CAGATTCA | 0.0109 |
| ACCCTTCC | -0.184 |
| ATTGAAAA | 0.208 |
| ATCCCGAT | -0.0356 |
| GCTAATTA | 0.352 |
| GCGATCGA | -0.0642 |
| ATCAAACG | -0.0333 |
| ACTTCGGC | -0.0412 |
| TCATACGA | -0.09 |
| CTTTCATC | -0.0606 |
| GAGCTGAC | -0.316 |
| CGCGGCCC | -0.302 |
| GCCTTAAA | 0.129 |
| ACATGTGG | 0.056 |
| AAGTTGGA | 0.241 |
| CGGAAGAC | -0.128 |
| CTTTAGCA | 0.0383 |
| ACCCATGG | -0.112 |
| CGATATTA | 0.331 |
| CCATGAGG | -0.203 |
| GCAGAAAA | 0.148 |
| CGTTAGGA | -0.0326 |
| CGGTTTAA | 0.179 |
| CACTATTA | 0.357 |
| CATCAGAC | -0.0888 |

| Sequence | PBM 8-mer E-score |
| --- | --- |
| ACGCCCAT | -0.175 |
| AACTGACT | 0.0393 |
| ATTAGATC | 0.103 |
| GCAAGCTA | -0.201 |
| CACCTACA | -0.0302 |
| ATCGGATG | -0.137 |
| GCGTACAC | 0.0414 |
| CTTGCAGC | -0.107 |
| AACGTAAG | 0.0101 |
| ATCTTTAC | 0.166 |
| CAATACTG | 0.132 |
| GATTCTGA | -0.00658 |
| TCCTGAGA | -0.121 |
| AGAGGATC | -0.122 |
| CCCAAAAA | 0.0436 |
| TAATCGTA | 0.148 |
| CCAAGAAC | -0.14 |
| AGTTCAAT | 0.308 |
| CCGCCTAC | -0.217 |
| ACCTAATG | -0.0237 |
| GTCCACAA | -0.0607 |
| GCACACAC | -0.13 |
| AAGTAATA | 0.379 |
| TTAGCTAA | 0.232 |
| ACTACAAA | 0.121 |

| Sequence | PBM 8-mer E-score |
| --- | --- |
| ATGTCGAG | -0.0422 |
| GGTCGAGA | -0.0867 |
| ACGATCCG | -0.0878 |
| ATTGCGTG | 0.0773 |
| ACCACAAG | -0.156 |
| CGGTCCGC | -0.2 |
| AGGTAACT | 0.162 |
| CCTCAAGA | -0.154 |
| AAAGAGAA | 0.0973 |
| CCCTTTCC | -0.188 |
| ACCAACAA | 0.0871 |
| TCAACGAA | -0.0952 |
| ATGGCCAG | -0.256 |
| AGCGAAAA | 0.103 |
| ACCTTGCA | -0.00186 |
| CCGTGATC | -0.247 |
| ACCAGCGG | -0.131 |
| GTATGCCA | 0.0023 |
| ACTTTCCC | 0.153 |
| CTTGTTTA | 0.198 |
| AACGCGGT | -0.0925 |
| CAATCTTA | 0.0597 |
| ATTGCGTC | -0.0416 |
| CACCCAAC | -0.0487 |
| AACTTATG | 0.372 |

| Sequence | PBM 8-mer E-score |
| --- | --- |
| CGTAATTC | 0.225 |
| TTGAAAAA | 0.218 |
| AAAGTCTT | 0.238 |
| ACTCTACT | 0.0819 |
| ACGACGAA | -0.0134 |
| AGAGAAGA | -0.0463 |
| CCCCCAGA | -0.33 |
| ATAAGCTA | 0.183 |
| CGCCAGTC | -0.1 |
| ACTTGCAG | 0.0173 |
| CTTAACCC | 0.113 |
| AAGTCAGA | -0.0529 |
| CACGGTCA | -0.146 |
| AAGCTTGA | -0.24 |
| ACCTACTC | -0.175 |
| AGCCGGCC | -0.306 |
| AGTATGTC | 0.111 |
| GCCCAAAC | -0.0754 |
| GAAATATC | 0.227 |
| ATATCCGC | 0.187 |
| AGTTGTTC | 0.176 |
| CAAAAAGG | 0.0108 |
| CTAATGTC | 0.0129 |
| AGACTGTG | -0.134 |
| GTACGGAA | -0.103 |

| Sequence | PBM 8-mer E-score |
| --- | --- |
| CAGCCTGG | -0.102 |
| ATATCGGA | 0.19 |
| TACCCGTA | 0.0309 |
| CTCCTACC | -0.239 |
| ATCGCCGA | -0.115 |
| AGTCCCCA | -0.113 |
| AAAAGGGT | -0.0876 |
| TCGGATAA | -0.00106 |
| TCTTATAA | 0.369 |
| CTTCGCGA | -0.146 |
| CGCGTAAC | 0.00987 |
| ATTAAAGC | 0.262 |
| TCACTCCA | -0.0685 |
| CAGCGCTC | -0.304 |
| CGGTCAGA | -0.0901 |
| AAATGGAC | 0.0192 |
| AGCAGTTC | -0.151 |
| TCAGGTAA | -0.0419 |
| CGTTATAA | 0.39 |
| ATCAGCCA | -0.0988 |
| TACGGGGA | -0.178 |
| AGGCCATC | -0.264 |
| ACCTAGCC | -0.0954 |
| AGGCTGTG | -0.117 |
| ATGCCATC | -0.12 |

| Sequence | PBM 8-mer E-score |
| --- | --- |
| AACCCGGA | -0.134 |
| CCGGTGCC | -0.18 |
| GCATATAC | 0.311 |
| ACGCGGTA | -0.0934 |
| GTTCAGTA | 0.104 |
| CCTGACCG | -0.219 |
| CGTTATCC | 0.009 |
| CAACTCTG | 0.0926 |
| AACAGACC | 0.108 |
| CTCGGATC | -0.138 |
| AAAGATTT | 0.198 |
| CATTCGCC | 0.0201 |
| CCCTTTTC | -0.195 |
| AGAATCCC | -0.25 |
| CTCGGGGC | -0.33 |
| CTCCATTC | -0.121 |
| CACAGTAC | 0.00579 |
| AAATCATT | 0.238 |
| CTACGGTC | -0.189 |
| CACAACAC | 0.191 |
| CAGTCCGG | -0.204 |
| ATTGCTCC | -0.176 |

From the supplement of paper PMC4466236
